Measurements: article PMC12040169 (PLOS Biology, 2025)
Some of the results follow.

test system: T1, C. trachomatis L2/434/Bu expressing GFP (CTL2-GFP); design: species or system HeLa; C. trachomatis total inclusion area by high-content imaging, normalised to DMSO; details: total inclusion area; 28.5 h, 10 µM; inhibitor
T1 construct: L2/434/Bu GFP intracellular growth in HeLa cells
Procedure, shortened: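 High-content images of fixed, Hoechst-stained infected cultures supply inclusion area and count (growth) plus nuclei number (viability), complementing bulk GFP/resorufin fluorescence. MIC determination is unchanged from the primary assay.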

SMILES	% of control remaining
Cc1ccc(OCCNC(=O)C(C)Cn2cccn2)cc1 (stereo not drawn) [CBK283252]	82.1722
Cc1cc(C)c2c(c1)C1(C(=O)N2)C(C#N)=C(N)Oc2[nH]nc(-c3ccccc3)c21 (stereo not drawn) [CBK267367]	111.724
CC(C)(C)c1ccc([S+]([O-])c2cncc(N3CCNCC3)n2)cc1 (stereo not drawn) [CBK051434C]	82.7651
CCOC(=O)c1ccc(N2C(=O)CC(N3CCN(c4cccc(OC)c4)CC3)C2=O)cc1 (stereo not drawn) [CBK265396]	110.935
CC(C)c1nn(CN(C)Cc2ccccc2)c(=S)[nH]1 [CBK295166]	104.27
CN1CCC(Oc2nc3ccccc3nc2C(F)(F)F)CC1 [CBK113299]	84.0808
CNC(=O)c1ccc(OC)c(S(=O)(=O)NC)c1 [CBK270153]	89.6106
Cc1nccn1CC(=O)N1CCCC(C)(C(=O)NC2CCCC2)C1 (stereo not drawn) [CBK282210]	102.208
O=C1C2C3C=CC(C3)C2C(=O)N1CCNCCO (stereo not drawn) [CBK264414]	100.688
Cc1ccc(Cn2c(=N)n(CC(=O)c3cc(C(C)(C)C)c(O)c(C(C)(C)C)c3)c3ccccc32)cc1 [CBK262458B]	13.2548
CCOc1ccc(N(CC(=O)O)S(=O)(=O)c2ccc(SC)cc2)cc1 [CBK263764]	105.998
Cn1c(=O)c(C(N)=O)c(O)c2ccccc21 [CBK027440]	94.4225
CCNC(=O)C1(Cc2ccc(-c3cccs3)cc2)CCN(C(=O)c2ccccc2)CC1 [CBK285794]	129.878
CN(C)CCCOC(=O)CN1c2ccccc2CCc2ccccc21 [CBK022863C]	59.3906
c1cncc(-c2cc(NCCc3ccncc3)ncn2)c1 [CBK037716]	88.4374
c1ccc(CCCNc2ncc(-c3ccc(N4CCOCC4)cc3)n3ccnc23)cc1 [CBK091223]	97.5678
CC(C)(C)c1cc(CN2CCCCC2)c(C(=O)O)o1 [CBK266556C]	117.898
O=c1c2c(nc(SCCc3ccccc3)n1CCc1ccccc1)-c1ccccc1CC21CCCCC1 [CBK262661]	101.124
O=C(Nc1ccc(F)cc1)c1[nH]c2ccccc2c1NS(=O)(=O)c1ccc(Cl)c(Cl)c1Cl [CBK050091]	53.6864
Cc1cccc(-c2ncc(C(=O)NCCCN3CCCC3=O)cc2-c2ccco2)c1 [CBK037455]	110.516
O=C(Nc1ccccc1[N+](=O)[O-])C(c1ccccc1)N1CCOCC1 (stereo not drawn) [CBK269390]	99.3465

SMILES	% of control remaining
CCn1cc(CN2CCC(O)(c3ccc(C)cc3)CC2)cn1 [CBK282735]	115.121
O=C(c1cc(F)c(F)cc1F)N1CCC2(CCCN(CCS(=O)(=O)c3ccccc3)C2)C1 (stereo not drawn) [CBK132003]	72.571
CCN(CC)C(=O)CSc1nnc[nH]1 [CBK026212]	87.8881
CS(=O)(=O)c1ccc(Cn2c(=O)n(S(=O)(=O)c3ccccc3)c3ccccc32)cc1 [CBK106530]	107.893
O=C(CSc1nnc(-c2ccccn2)[nH]1)NC1CC2CCC1C2 (stereo not drawn) [CBK269994]	70.4864
COc1cncc(-c2cc(N3CCN(S(=O)(=O)c4ccc(Cl)cc4)CC3)ncn2)c1 [CBK091162]	71.5687
CCn1cc(Cl)c(C(=O)NC2CCN(c3cc(C)n[nH]3)CC2)n1 [CBK304322]	110.116
COc1ccc(N2CC(NC(=O)Nc3ccccn3)CC2=O)cc1 (stereo not drawn) [CBK287642]	93.1157
CC(C)c1nccn1-c1ccc(NC(=O)Cn2ccnc2)cc1 [CBK281381]	88.2485
Cc1sc(NC(=O)CC(C)(C)CC(=O)Nc2sc(C)c(C)c2C(=O)O)c(C(=O)O)c1C [CBK296094]	92.1874
CC(C)C12CN3CC(C(C)C)(CN(C1)C3c1c[nH]c3ccccc13)C2=O (stereo not drawn) [CBK263740]	112.882
CCOC(=O)c1ccc(COc2cccc(-c3cnc4ccccc4n3)c2)cc1 [CBK266395]	89.9662
c1ccc2sc(-c3cc(N4CCN(CCN5CCCC5)CC4)ncn3)cc2c1 [CBK091172]	79.8308
C[C@]12C(=O)c3ccccc3NC(=O)C1[C@H]2C(=O)N1CCCCC1 (stereo partly drawn) [CBK285281]	85.7828
COc1cccc(C2C=C(c3cccnc3)Nc3ncnn32)c1OC (stereo not drawn) [CBK288062]	124.414
CSc1nc(N)n(-c2cc(C(F)(F)F)cc(C)n2)n1 [CBK005941]	106.777
COc1ccc(-c2cc(=O)oc3cc(OCC(=O)c4cc5ccccc5o4)ccc23)cc1 [CBK265634]	91.6612
Cc1cc2c(cc1Br)NC(=O)/C2=N\O [CBK288453]	44.2442
CC(Oc1cccc(Cl)c1)C(=O)NCc1ccc(S(N)(=O)=O)cc1 (stereo not drawn) [CBK265477]	114.365
Nc1ccc(-c2cncc(N3CCN(c4ccncc4)CC3)n2)cc1 [CBK065681]	110.315
COc1ccc(C(NC(=O)C2CCN(C(=O)OCc3ccccc3)CC2)c2ccccc2C)cn1 (stereo not drawn) [CBK059726]	95.2427

SMILES	% of control remaining
CC(C)c1cccc(-n2cc(O)c(C(=O)NCCCn3cccn3)n2)c1 [CBK305360]	52.7529
CCOC(=O)c1ccccc1OC(=O)c1ccc2c(c1)C1C=CCC1C(C(=O)O)N2 (stereo not drawn) [CBK265155]	117.586
CN1C(=O)CC2(C1=O)C(=O)N(CCCn1c(=O)n(C)c3ccccc31)c1ccc(F)cc12 (stereo not drawn) [CBK075441]	76.0508
COc1ccccc1CC(=O)N1CCC(c2onc3c2CCC3)CC1 [CBK284464]	40.0038
CCCC(=O)N1C2CCC1c1cnc3cc(-c4ccco4)nn3c1C2 (stereo not drawn) [CBK284383]	110.232
O=C(O)CCc1ccc(-c2ccc(Nc3cccnc3)nc2)cc1 [CBK037768]	132.945
CC(NC(=O)CCn1cncn1)c1cccs1 (stereo not drawn) [CBK282199]	117.503
CN(C)CCN(Cc1ccccc1)C(=O)NCc1c(Cl)cccc1Cl [CBK155107]	85.6362
CC(=O)c1sc(=S)n(N(C)C)c1C [CBK006774]	67.7894
OC(COc1ccccc1)CN1CCN(Cc2ccccc2)CC1 (stereo not drawn) [CBK074852C]	86.4205
COc1ccc2[nH]cc(C3CCN(Cc4nc(C)no4)CC3)c2c1 [CBK305982]	85.1401
COC(=O)NC(O)C(=O)c1ccco1 (stereo not drawn) [CBK027757]	14.094
Cc1ccc(-c2nnc(-c3cccc(S(=O)(=O)N4CCOCC4)c3)o2)cc1 [CBK263215]	92.0624
CC1(C)CC(NC(=O)Cn2ccc3ccccc32)CCO1 (stereo not drawn) [CBK304347]	69.9124
COc1cccc(OC)c1-c1cn2ccnc2c(NC2CC2)n1 [CBK038020]	154.463
Cc1cc(NC(=O)N2CCCN(CC3CCCCC3)CC2)no1 [CBK306239]	24.369
Cc1ccc(C)c(-n2nnnc2SCC(=O)c2ccc(Cl)cc2Cl)c1 [CBK141941]	78.7719
O=C(CCNS(=O)(=O)c1ccc(Cl)cc1)Nc1ccncc1 [CBK269244]	100.197
O=C(O)c1ccc(N2C(=O)CC(N3CCN(c4cccc(C(F)(F)F)c4)CC3)C2=O)cc1 (stereo not drawn) [CBK287228]	94.8455
COc1cccc2ncn(CCCc3nc(C)c(C)s3)c(=O)c12 [CBK307208]	91.13
CCCN1CCN(S(=O)(=O)c2ccc(C)cc2)CC1 [CBK270326]	120.478

SMILES	% of control remaining
O=C(Cc1ccccc1)N1CCN(S(=O)(=O)N2CCCCC2)CC1 [CBK269097]	93.764
CCn1c(=O)n(CCC(N)=O)c2cc(S(=O)(=O)N(C)C)ccc21 [CBK305577]	61.6401
Cc1onc(-c2ccccc2Cl)c1C(=O)N(Cc1nc(-c2ccccc2)no1)C(C)C [CBK269289]	99.9016
O=C(NS(=O)(=O)c1cccc(-c2nnco2)c1)C1CC1C1CCCCC1 (stereo not drawn) [CBK305924]	15.5214
O=C(O)C1CCCCC1C(=O)N1CCc2ccccc2C1 (stereo not drawn) [CBK286594]	90.1755
O=C(CN1C(=O)COc2ccccc21)NCc1ccco1 [CBK269682]	69.2218
Cc1ccccc1C1(O)CCN(CC(O)c2ccc3c(c2)CCC3)CC1 (stereo not drawn) [CBK286329]	110.879
O=C(Nc1ncc(-c2ccccc2)s1)c1csc([N+](=O)[O-])c1 [CBK298293]	105.947
COCCNC(=O)N1CCN(c2ccccc2)CC1 [CBK155181]	88.0989
O=C1NCCCC12CCN(Cc1cccc3ncccc13)CC2 [CBK285033]	109.777
CCOC(=O)N1CCN(Cc2ccc(OCC3CCCNC3)cc2)CC1 (stereo not drawn) [CBK307355]	72.1966
Cc1sc(NC(=S)NC(=O)c2ccco2)c(C(N)=O)c1C [CBK266272]	131.872
CN1CCC(N(C)C/C(Cl)=C/c2ccccc2)CC1 [CBK261903]	95.1583
CC(Nc1ncnc2c1cnn2C)c1ccccc1 (stereo not drawn) [CBK288093]	62.4345
Cc1ccc(-c2cccc(N3CCN(CCN4CCCC4)CC3)n2)cc1C [CBK037799]	132.22
Cc1nn(C)cc1-c1cncn1CC(C)N1CCC(C)CC1 (stereo not drawn) [CBK281789]	87.649
COC(=O)CCC(=O)NNC(=O)c1cccc(Br)c1 [CBK261606]	112.879
CCCCN1CCC2CN(CCCC(c3ccc(F)cc3)c3ccc(F)cc3)CCN2C1=O (stereo not drawn) [CBK024880C]	53.5391
